Test results taken from paper PMC4336329 (PLoS ONE, 2015).
The campaign covered roughly 310,000 compounds. About 2,200 (0.71%) showed an effect of 50% or more. Effects have a minus sign here. The list shows a part of the results.

biological target: human ether-à-go-go-related gene (hERG) potassium channel (human, UniProt Q12809); assay: primary screen, population patch clamp on CHO cells stably expressing hERG
Sequence (Q12809 whole entry, looked up): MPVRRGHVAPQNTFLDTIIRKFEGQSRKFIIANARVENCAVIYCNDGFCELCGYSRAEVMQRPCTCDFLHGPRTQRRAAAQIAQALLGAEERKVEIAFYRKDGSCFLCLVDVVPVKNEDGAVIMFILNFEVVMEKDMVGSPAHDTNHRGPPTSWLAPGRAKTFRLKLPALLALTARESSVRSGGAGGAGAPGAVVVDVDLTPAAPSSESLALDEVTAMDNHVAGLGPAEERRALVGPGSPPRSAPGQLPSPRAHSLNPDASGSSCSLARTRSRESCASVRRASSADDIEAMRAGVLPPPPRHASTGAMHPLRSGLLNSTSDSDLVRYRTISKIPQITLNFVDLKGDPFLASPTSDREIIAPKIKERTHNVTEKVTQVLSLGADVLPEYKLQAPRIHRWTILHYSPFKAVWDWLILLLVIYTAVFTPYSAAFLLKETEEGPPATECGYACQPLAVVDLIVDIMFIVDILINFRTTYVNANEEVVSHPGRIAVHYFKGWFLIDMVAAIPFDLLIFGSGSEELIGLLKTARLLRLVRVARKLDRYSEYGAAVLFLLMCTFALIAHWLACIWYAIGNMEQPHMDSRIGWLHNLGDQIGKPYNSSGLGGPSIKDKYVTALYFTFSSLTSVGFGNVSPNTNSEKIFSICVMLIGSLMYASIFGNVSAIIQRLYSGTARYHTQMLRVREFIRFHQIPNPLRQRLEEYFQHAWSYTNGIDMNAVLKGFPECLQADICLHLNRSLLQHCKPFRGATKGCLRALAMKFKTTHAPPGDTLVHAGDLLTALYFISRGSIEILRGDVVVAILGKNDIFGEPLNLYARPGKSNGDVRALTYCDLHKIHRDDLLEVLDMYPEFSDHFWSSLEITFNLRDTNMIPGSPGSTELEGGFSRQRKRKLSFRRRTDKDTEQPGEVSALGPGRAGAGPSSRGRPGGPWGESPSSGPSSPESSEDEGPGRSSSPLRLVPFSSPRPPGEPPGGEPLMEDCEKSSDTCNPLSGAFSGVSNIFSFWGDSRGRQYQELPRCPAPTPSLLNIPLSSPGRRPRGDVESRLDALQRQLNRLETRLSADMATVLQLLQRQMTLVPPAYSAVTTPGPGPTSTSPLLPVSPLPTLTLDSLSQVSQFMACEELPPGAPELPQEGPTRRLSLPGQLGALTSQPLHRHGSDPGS

SMILES	hERG current change (%, negative = inhibition) at 1uM [%]
Cc1ccccc1NP(=O)(c1ccccc1)c1nc2ccccc2s1 (centres unmarked)	8.71
CCOC(=O)CSc1nnc(NC(=O)CN2CCN(C=O)CC2)s1	11
Cc1ccc(C)c(N2CCN(CCCNC(=O)Cn3cc4c(n3)CCCCC4)CC2)c1	-43.4
COCCn1c(C)cc(C(=O)COC(=O)c2cccc(O)c2)c1C	11
COc1cc(C2C(C#N)=C(N)Oc3c2oc(CO)cc3=O)cc(OC)c1OC (centres unmarked)	16.4
Cc1cccc(N2CCN(C(=O)N3CCCCC3)CC2)c1C	3.13
COC(=O)Cc1cnc(NC(=O)C2C3CCC(C3)C2C(=O)O)s1 (centres unmarked)	-4.16
COc1ccc(NS(=O)(=O)c2ccc(N3CCCC3)c(NC(=S)Nc3cccc(S(=O)(=O)N(C)C)c3)c2)cc1	8.47
Cc1ccc(Cn2cnc3c(cnn3-c3ccc(F)cc3)c2=O)cc1	13.1
Cc1ccc(C)c(SCC(=O)OCC(=O)Nc2ncc(C(F)(F)F)cc2Cl)c1	14.9
CN1CCN(c2ccc(NC(=S)NC(=O)c3cccc4ccccc34)cc2)CC1	8.94
COc1ccc(-c2nc3ccccc3c(=O)n2CCc2ccc(O)cc2)cc1	4.44
COCCN(C(=O)COC(=O)Cc1c[nH]c2ccccc12)c1c(N)n(Cc2ccccc2)c(=O)[nH]c1=O	15.4
CC(C)Cc1ccc(CN2CCCC(NC(=O)c3ccnn3C)C2)cc1 (centres unmarked)	-50.4
COC(=O)CSc1ccc(C#N)c(SCC(=O)OC)c1	12.6
CCC(Sc1ncnc2sc(C)c(C)c12)C(=O)OC (centres unmarked)	11.3
CCCCN1/C(=C/c2cccc[n+]2C)Sc2cc(NC(C)=O)ccc21.[I-]	6.72
Cc1ccsc1/C=N/n1c(COc2ccccc2)n[nH]c1=S	14.2
Cc1ncsc1C(=O)Nc1nc2c(s1)CCCC2	8.42

SMILES	hERG current change (%, negative = inhibition) at 1uM [%]
COc1ccccc1C(=O)NC(=O)COC(=O)CCNS(=O)(=O)c1ccccc1	3.37
C=CCN(CC=C)C(=O)C1CCN(S(=O)(=O)c2ccc(-n3cnnn3)cc2)CC1	-13.1
Cc1nn(-c2ccccc2)c2c1C(=O)N(c1ccccc1)C(=O)C(C)(C)C2	-0.52
Cc1nc2nc(NC(=O)c3ccco3)[nH]n2c(=O)c1C	15
CC1CCC(C(C)C)C(OC(=O)COC(=O)c2cc(O)ccc2N)C1 (centres unmarked)	8.95
COc1ccccc1N1CCN(C(=O)c2noc(C)c2[N+](=O)[O-])CC1	14.1
Cc1ccc(C2=NS(=O)(=O)N(C)C(C(=O)N3CCOCC3)=C2)cc1	-8.93
COC(=O)CCn1c(C)cc(C(=O)COc2ccccc2C(N)=O)c1C	2.65
O=C1C=C(c2cccc3c2sc2ccccc23)C[C@@H](c2ccc(F)cc2)C1	19
O=C(CNC(=O)c1ccco1)OCc1cccc(Cl)c1	7.61
Cc1cccn2c(=O)c(C=Nc3ccc(Cl)cc3)c(NCCO)nc12	9.55
O=C(CN1C(=O)NC(Cc2ccccc2)C1=O)NC(=O)NC1CCCCC1 (centres unmarked)	10.7
CCOc1ccccc1OCc1nn2c(-c3ccc(C)cc3)nnc2s1	11.9
O=C(O)c1cccc(NC(=O)C2C3C=CC(C3)C2C(=O)OCC(F)(F)C(F)F)c1 (centres unmarked)	8.48
CC(=O)c1c(C)oc2ccc(NS(=O)(=O)c3ccc(C(=O)O)cc3)cc12	10.7
CC(OC(=O)c1cccc(S(=O)(=O)Nc2cccc(C(F)(F)F)c2)c1)C(=O)Nc1ccc2c(c1)OCCO2 (centres unmarked)	3.98
Cc1ccc(C)c(-c2cc(C(=O)NCc3cccs3)c3ccccc3n2)c1	5.13
CCC(=O)NC(=S)Nc1ccc(S(=O)(=O)N2CCN(C)CC2)cc1	0.669
CCC(=O)NC(Nc1cc(C)ccn1)(C(F)(F)F)C(F)(F)F	15

SMILES	hERG current change (%, negative = inhibition) at 1uM [%]
O=C(N/N=C/C(Br)=C/c1ccccc1)c1cnccn1	9.36
Cc1cc(C)n(CC(O)COc2ccc(Cl)cc2)n1 (centres unmarked)	18.3
CCOc1ccc(Nc2nc(Cc3nnc(SCC(=O)NCC4CCCO4)n3C)cs2)cc1 (centres unmarked)	-2.96
COc1ccc2[nH]c(C(=O)N3CCC(Cc4ccccc4)CC3)cc2c1	11.2
CCOc1ccc(CCNC(=O)C2CC(=O)N(c3ccc4c(c3)OCCO4)C2)cc1OCC (centres unmarked)	11.7
Cc1ccc(Nc2ccc([N+](=O)[O-])nc2[N+](=O)[O-])cc1	9.24
Cc1nn(-c2ccccc2)c(C)c1P(=O)(c1ccccc1)N(C)C (centres unmarked)	15
Cc1ccc(S(=O)(=O)N(Cc2ccccc2)c2ccccn2)cc1[N+](=O)[O-]	10.4
O=C(O)COc1c(-c2ccc(Cl)cc2)oc2ccccc2c1=O	15.4
Cc1ccc(CN2CCC(n3nccc3NC(=O)c3ccccc3C)CC2)o1	-3.41
COc1ccc(CN2C(=O)c3cccnc3C2=O)cc1S(=O)(=O)N1CCCCC1	19.4
COc1ccc(-c2nnc(SCC(=O)Nc3cc(F)ccc3C)o2)cc1	3.71
COc1cccc(/C=C2\C(=O)C(=O)c3ccccc32)c1	3.29
Nc1nnnn1/N=C/c1ccccn1	-4.38
Cc1cc(C)cc(N(CC(=O)NC2CCCC2)C(=O)C2(C)CC(=O)N=C3C=CC=CN32)c1 (centres unmarked)	17.2
Cc1ccc(NC(=O)CN(C)C(=O)CSc2nncn2C)cc1	9.49
CC(C)(C)NS(=O)(=O)c1ccc(NC(=O)C2CCCCC2)cc1	7.62
Cc1ccc(/C=N/NC(=O)CSc2ccccn2)o1	8.82
